Data reported in the RNAGym collection of RNA variant scans (doi:10.7554/elife.90254).
The source gives no read counts; variants with many changes may rest on few reads.

B1: OR4K15 (parent)
chain: GUUAACGGUCAUAGGCCAUGGAAACUAGGAGCACCAUUUCGCUGCCAGUGAAGAAAUGAACAAAGAAAAUCUGGGCCAGGCAGGCAUCAAAAGAAAUAGUCUUGCGCUCAACCAGAAAGUCUGUAAUCAUUUUAAGGGUA

Variants of: B1
Assay: self-cleavage, relative activity (ratio to wild type); higher = more cleavage; in vitro, sequencing; the parent is a self-cleaving ribozyme

| Variant | self-cleavage |
| --- | --- |
| GUUAACGGUCAUAGGCCAAGGAAACUAGGAGCACCAUUUCGCUGCCAGUGAAGAGAUGAACAAAGAAAAUCUGGGCCAGGCAGGCAUCAAGAGAAAUAGUCUUGCGCUCAACCAGAAAGUCUGUUAUCAUUUUAAGGGUA | 0.5 |
| GUUAACGGUCAUAGGCCAAGGAAACUAGGAGCACCAUUUCGCUGCCAGUGAAGUAAUGGACAAAGUAAAUCUGGGCCAGGCAGGCAUCAAAGGAAAUAGUCUCGCGCUCAACCAGAAAGUCUGUAAUCAUUUUAAGGGUA | 0.35 |
| GUUAACGGUCAUAGGCCAAGGAAACUAGGAGCACCAUUUCGCUGCCAGUGUAGAAAUGAACAAAGAAAAUCUGGGCCGGGCAGGCAUCAAAAGAAAUAGUCUUGCGCUCAACCAGAAAGUCUGUAAUCAUUUUAAGGGUA | 0.2 |
| GUUAACGGUCAUAGGCCACGGUAGCUAGGAGCACCAUUUCGCUGCCAGUGAAGAAAUGAACAAAGAAAAUCUGGGCCAGGCAGGCAUCAGAAGAAAUAGUCUUGCGCUCAACCAGAGAGUCUGUAAUCAUUUUAAGGGUA | 1.29 |
| GUUAACGGUCAUAGGCCAAGGAAACUAGGAGCACCAUUUCGCUGCCAGUGAAGAAAUGAACAAAGAAAAUCUGGGCCAGGCAGGCGUCAAAAGAAAUGGUCUUGCGCUCAACCAGAAAGUCUGUAAUCAUUUUAAGGGUA | 0.41 |
| GUUAACGGUCAUAGGCCAAGGAAACUAGGAGCACCAUUUCACAGCCAGUGAAGAAAUGGACAAAGAAAAUCUGGGCCAGGCAGGCAUCAAAAGAAAUAGUCCUGCGCUCAACCAGGAAGUCUGUAAUCAUUUUAAGGGUA | 0.53 |
| GUUAACGGUCAUAGGCCACGGGAACUAGGAGCACCAUUUCGCCGCCAGUGAAGAAAUGGACAAAGAAAGUCUGGGCCAGGCCGGCAUCAAAAGAAAUAGUCUUGCGCUCAACCAGAAAGUCUGUAAUCAUUUUAAGGGUA | 0.27 |
| GUUAACGGUCAUAGGCCAAGGAAACUAGGAGCACCAUUUCGCUGCCAGUGAAGAAAUGAACAAAGAAAAUCUGGGCCGGGCAGGCAUCAAAAGAAAUAGUCUUGCGCUCAACCAGAAAGUCUGUGAUCAUUUUAAGGGUA | 0.04 |
| GUUAACGGUCAUAGGCCAAGGAAACUAGGAGCACCAUUUCGCUGCCAGUGAAGAAAUGAACAAAGAAAAUCUGGGCCAGGCAGGCAUCAAAAGAAAUAGUCUCGCGCUCAACCUGAAAGUCUGUAAUCAUUUUAAGGGUA | 0.05 |
| GUUAACGGUCAUAGGCCAAGGAAACUAGGAGCACCAUUUCGCUGCCAGUGAAGAAACGAACAAAGAAAGUCUGGGCCAGGCAGGCAUCAAAAGAAAUAGUCUUGCGCUCAACCAGAAAGUCUGUAAUCAUUUUAAGGGUA | 0.8 |
| GUUAACGGUCAUAGGCCACGGGAACUAGGAGCACCAUUUCGCCGCCAGUGAAGAGAUGAACAAAGAAAAUCUGGGCCAGGCAGGCAUCAAAAGAAAUAGUCUUGCGCUCAACCAGAAAGUCUGUAAUCAUUUUAAGGGUA | 0.93 |
| GUUAACGGUCAUAGGCCAAGGAAACUAGGAGCACCAUUUCGCUGCCAGUGAAGAAAUGAACAAAGAAAAUCUGGGCCAGGCAGGCAUCAAAAGAAGUAGUCUUGCGCACGACCAGAAAGUCUGUAAUCAUUUUAAGGGUA | 0.03 |
| GUUAACGGUCAUAGGCCACGGGAACUAGGAGCACCAUUUCGCUGCCAGUGAAGAAAUGAACAAAGAAAAUCUGGGCCAGGCAGGCUUCAAAAGAAAUAGUCUUGCGCUCAACCAGAGAGUCUGUAAUCCUUUUAAGGGUA | 0.72 |
| GUUAACGGUCAUAGGCCAAGGAAACUAGGAGCACCAUUUCGCUGCCAGUGAAGAAGUGAACAAAGAAAAUCUGGGCCAGGCAGGCAUCAAAAGAAAUAGUCUUGCGCUCAACCUGAAAGUCUGUAAUCAUUUUAAGGGUA | 0.06 |
| GUUAACGGUCAUAGGCCAAGGAAACUAGGAGCACCAUUUCGCUGCCAGUGAAGAAAUGAGCAAAGAAAAUCUGGGUCAGGCAGGCAUCAAAAGAAAUAGUCCUGCGCUCGACCAGAAAGUCUGUAAUCAUUUUAAGGGUA | 0.06 |
| GUUAACGGUCAUAGGCCAAGGAAACUAGGAGCACCACUUCGCUGCCAGUGAAGAAAUGAACAAAGGGAAUCUGGGCCAGGCAGGCAUCAAAAGAAAUAGUCUUGCGCUCAACCAGAAAGUCUGUAAUCAUUUUAAGGGUA | 1.49 |
| GUUAACGGUCAUAGGCCAAGGAAACUAGGAGAACCAUUUCGCUGCCAGUGAAGAAAUGAACAAAGAAAACCUGGGCCAGGCAGGCAUCAAAAGAAAUAGACCUGCGCUCAACCAGAAAGUCUGUAAUCAUUUUAAGGGUA | 1.08 |
| GUUAACGGUCAUAGGCCACGGGAACUAGGAGCACCAUUUCGCUGCCAGUGUAGAAAUGAACAAAGAGAUUCUGGGCCAGGCAGGCAUCAAAAGAAAUAGUCUUGCGCUCAACCAGAAAGUCUGGAAUCAUGUUAAGGGUA | 0.9 |
| GUUAACGGUCAUAGGCCAAGGAAACUAGGAGCACCAUUUCGCUGCCAGUGUAGAAAUGAACAAAGAAAAUCUGGGCCAGGCAGGCAUCAAAAGAAAUAGUCUCGCGCUCAACCAGAAAGUCUGUAAUCAUUUUAAGGGUA | 1.25 |
| GUUAACGGUCAUAGGCCAAGGAAACUAGGAGCACCAUUUCGCUGCCAGUGAAGAAAUGAACGGAGAAAAUCUGGGCCAGGCAGGCAUCAAAAGAAAUAGUCUUGCGCUAAACCAUAAAGUCCGUAAUCAUUUUAAGGGUA | 0 |
| GUUAACGGUCAUAGGCCACGGGAACUAGGAGCACCAUUUCGCUGCCAGUGAAGAAGUGAACAAAGAAGAUCUGGGCCAGGCAGGCAUCAAAAGAAAUAGUCUUGCGCUCAACCAGAAAGUCUGUAAUCAUUUUAAGGGUA | 0.68 |

| Variant | self-cleavage |
| --- | --- |
| GUUAACGGUCAUAGGCCACGGGAACUAGGAGCACCAUUUCGCUGCCAGCGAAGAAAUGAACAAAGAGAAUCUGGGCCAGGCAGGCAUCAAAAGAAAUAGUCUUGCGCUCAACCAGAAAGUCUGUAAUCAUUUUAAGGGUA | 0.89 |
| GUUAACGGUCAUAGGCCAAGGAAACUAGGAGCACCAUUUCGCUGCCAGUGAAGAAAUGAACAAAGAAAAUCUGGGCCAGGCAGGCAUCAAAAGAAAUAGUCCUGCGCUCAACCAGAAAGUCCGUAGUCAUCUUAAGGGUA | 0.5 |
| GUUAACGGUCAUAGGCCAAGGAAACUAGGAGCACCAUUACGCUGCCAGUGAAGAAAUGAACAAAGAAAGUCUGGGCCAGGCAGGCAUCAAAAGAAAUAGUCUUGCGCUCAACCAGAAAGUCUGUAAUCAUUUUAAGGGUA | 1.7 |
| GUUAACGGUCAUAGGCCAAGGAAACUAGGAGCACCAUUUCGCUGCCAGUGUAGAAAUGAACAAAGAAAAUCUGGGCCAGGCAGGCAUCAAAAGAAAUAGUCUUGCGCUCAACCAGAAAGUCUGUAGUCAUUUUAAGGGUA | 0.94 |
| GUUAACGGUCAUAGGCCAAGGAAACUAGGAGCACCAUUUCGCUGCCAGUGAAGAAAUGAACAAAGAAAAUCUGUGCCAGGCAGGCAUCAAAAGAAAUAGUCUUGCGCUCAACCAGAGAGUCUGUAAUCAUUUUAAGGGUA | 0.17 |
| GUUAACGGUCAUAGGCCAAGGAAACUAGGAGCACCACUUCGCUGCCAGUGUAGAAAUGAACAAAGAAAAUCUGGGCCAGGCAGGCAUCAAAAGAAAUAGUCUUGCGCUCAACCAGAAAGUCUGUAAUCAUUUUAAGGGUA | 0.81 |
| GUUAACGGUCAUAGGCCAAGGAAACUAGGAGCACCAUUUCGCUGCCAGUGUAGAAAUGAGCAAAGGAAAUCUGGGCCAGGCAGGCAUCAAAAGAAAUAGUCUUGCGCCCAACCAGAAAGUCCGUAAUCAUUUUAAGGGUA | 0.04 |
| GUUAACGGUCAUAGGCCAAGGAAACUAGGAGCACCAUUUCGCUGCCAGUGAAGAAAUGAACAAGGAAAAUCUGGGCCAGGCAGGCAUCAAAGGAAAUAGUCUUGCGCUCAACCAGAAAGUCUGUAAUCAUUUUAAGGGUA | 1.78 |
| GUUAACGGUCAUAGGCCAAGGAAACUAGGAGCACCAUUUCGCUGCCAGUGAAGAAUUGAACAAAGAAAGUCUGGGCCAGGCAGGCAUCAAAAGAAAUAGUCUUGCGCUCAACCUGAAAGUCUGUAAUCAUUUUAAGGGUA | 0.05 |
| GUUAACGGUCAUAGGCCAAGGAAACUAGGAGCACCAUUUCGCUGCCAGUGAAGAAAUGAACAAAGAAAAUCUGGGCCAGGCAGGCAUCAAAAGAAAUAGUCUUGCGCCCAACCAGAAGGUCUGCAAUCAUUUUAAGGGUA | 0 |
| GUUAACGGUCAUAGGCCAAGGAAACUAGGAGCACCAGUCCGCUGCCAGUGAAGAAAUGAGCAAAGAAAAUCUGGGCCAGGCGGGCAUCAGAAGAAAUAGUCUUGCGCUCAACCAGAAAGUCUGUAAUCAUUUUAAGGGUA | 0.27 |
| GUUAACGGUCAUAGGCCAAGGAAACUAGGAGCACCAUUUCGCUGCCAGUGAAGAAGUGAACAAAGAAGGUCUGGGCCAGGCAGGCAUCAAAAGAAAUAGUCUUGCGCUCGACCAGUAAGUCUGUAAUCAUUUUAAGGGUA | 0.01 |
| GUUAACGGUCAUAGGCCAAGGAAACUAGGAGCACCAUUUCGCUGCCAGUGAAGAAAUGAACAAAGAAAAACUGGGCCAGGCAGGCAUCAAAAGAAAUAGUCUUGCGCUCAGCCAGAGAGUCUGUAAUCAUUUUAAGGGUA | 0.02 |
| GUUAACGGUCAUAGGCCAAGGAAACUAGGAGCACCAUUUCGCUGCCAGUGAAGAAAUGAACAAAGAAAAUCUGGGCCAGGCAGGCAUCAAAAGAAAUAGUCUUGCGCUCAGCCAGGAAGUCUGUAGUCAUUUUAAGGGUA | 0 |
| GUUAACGGUCAUAGGCCAAGGAAACUAGGAGCACCAUUUCGCCGCCAGUGAAGAAAUGAACAAAGAAGAUCUGGGCCAGGCAGGCAUCAAAAGAAAUAGUCUUGCGCUCAACCAGAAAGUCUGUAAUUAUUUUAAGGGUA | 0.8 |
| GUUAACGGUCAUAGGCCAAGGAAACUAGGAGCACCAUUUCGCCGCCAGUGAAGAAAUGAACAAGGAAAAUCUGGGCCAGGCAGGCAUCAAAAGAAAUAGUCUUGUGCUCAACCAGAAAGUCUGUAAUCAUUUUAAGGGUA | 0.05 |
| GUUAACGGUCAUAGGCCACGGGAACUAGGAGCACCAUUUCGCUGCCAGUGAAGAAAUGAUCGAAGAAAAUCUGGGCCAGGCAGGCAUCAAAAGAAAUAGUCUUGCGCUCAACCAGAAAGUCUGUAAUCAUUUUAAGGGUA | 0.6 |
| GUUAACGGUCAUAGGCCAAGGAAACUAGGAGCACCAUUUCGCUGCCAGUGAAGAAAUGAACAAAGGAGAUCUGGGCCAGGCAGGCAUCAAAAGAAAUAGUCUUGCGCUCAACCAGAAAGUCUGUAAUCAUUUUAAGGGUA | 0.74 |
| GUUAACGGUCAUAGGCCAAGGAAACUAGGAGCACCAUUUCGCUGCCAGUGAAGAAAUGAACAAUGAAAGUCUGGGCCAGGCAGGCAUCAAAAGAAAUAGUCUUGCGCUCAACCAGAAAGUCUGUAAUCAUUCUAAGGGUA | 0.38 |
| GUUAACGGUCAUAGGCCAAGGAAACUAGGAGCACCAUUUCGCUGCCAGUGAAGAAAUGAACAAAGAAAAUCUGGGCCAGGCAGGCAUCAAAGGAAAUAGUCUUGCGCUCAACCAGGAAGUCUGUAAUCAUUUUAAGGGUA | 0.31 |
